From the supplement of paper PMC4604168 (melanoma cell lines)
The other results are listed elsewhere or left out. Repeats are few or missing, and single values can be far off.

system: RVH-421; assay: cell count relative to DMSO control; melanoma cells; higher = more viable cells; details: library dose: standard library concentration; 72 h
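Further: cells treated in 1,536-well plates, then fixed and DAPI-stained, with nuclei counted from automated high-throughput microscope images.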

Compound	cell count
O=C(CCCCCCC(=O)Nc1ccccc1)NO [vorinostat] + COc1cc(Nc2ncc(F)c(Nc3ccc4c(n3)NC(=O)C(C)(C)O4)n2)cc(OC)c1OC [Tamatinib] (first compound 0.4 µM, partner dose 2 µM)	69.1%
O=C(CCCCCCC(=O)Nc1ccccc1)NO [vorinostat] + N#Cc1c(O)c2c(-c3ccc(-c4ccccc4O)cc3)csc2[nH]c1=O [A769662] (first compound 0.4 µM, partner dose 10 µM)	78.7%
Nc1cccc2c1CN(C1CCC(=O)NC1=O)C2=O (stereo unspecified) [lenalidomide] + Cn1cc(/C=C2\C(=O)Nc3cccnc32)c2ccccc21 [GW441756] (first compound 5 µM, partner dose 2 µM)	103%
Clc1ccc(Nc2nnc(Cc3ccncc3)c3ccccc23)cc1 [vatalanib] + C=CCn1c(=O)c2cnc(Nc3ccc(N4CCN(C)CC4)cc3)nc2n1-c1cccc(C(C)(C)O)n1 [MK1775] (first compound 10 µM, partner dose 0.1 µM)	15.6%
COCC[n+]1c2c(n(Cc3cnccn3)c1C)C(=O)c1ccccc1C2=O + O=c1cc(-c2cccc3c2Sc2ccccc2S3)oc(N2CCOCC2)c1 [KU55933] (first compound 0.002 µM, partner dose 5 µM)	89%
Cn1c(Nc2ccc(C(F)(F)F)cc2)nc2cc(Oc3ccnc(-c4ncc(C(F)(F)F)[nH]4)c3)ccc21 + O=C(CCCCCCC(=O)Nc1ccccc1)NO [vorinostat] (first compound 0.4 µM, partner dose 0.4 µM)	40.4%
COCC[n+]1c2c(n(Cc3cnccn3)c1C)C(=O)c1ccccc1C2=O + COc1cc2ncnc(Nc3ccc(Oc4ccccc4)cc3)c2cc1OC [SrcI1] (first compound 0.002 µM, partner dose 10 µM)	90.3%
COCC[n+]1c2c(n(Cc3cnccn3)c1C)C(=O)c1ccccc1C2=O + Cc1ccc(NC(=O)c2cccc(N(C)C)c2)cc1NC(=O)c1ccc(O)cc1 [ZM336372] (first compound 0.002 µM, partner dose 10 µM)	110%
COCC[n+]1c2c(n(Cc3cnccn3)c1C)C(=O)c1ccccc1C2=O + CN(NC(=O)CC(=O)NN(C)C(=S)c1ccccc1)C(=S)c1ccccc1 [STA4783] (first compound 0.002 µM, partner dose 0.03 µM)	58.5%
C#Cc1cccc(Nc2ncnc3cc(OCCOC)c(OCCOC)cc23)c1 [erlotinib] + Nc1cccc2c1CN(C1CCC(=O)NC1=O)C2=O [lenalidomide] (first compound 4 µM, partner dose 5 µM)	83.6%
Nc1cccc2c1CN(C1CCC(=O)NC1=O)C2=O (stereo unspecified) [lenalidomide] + COC(=O)c1sccc1S(=O)(=O)Nc1ccc(Nc2ccccc2)cc1OC [GSK0660] (first compound 5 µM, partner dose 5 µM)	85%
Nc1cccc2c1CN(C1CCC(=O)NC1=O)C2=O (stereo unspecified) [lenalidomide] + NC(=O)Nc1cc(-c2cccc(F)c2)sc1C(=O)N[C@H]1CCCNC1 [AZD7762] (first compound 5 µM, partner dose 0.1 µM)	15.5%
COCC[n+]1c2c(n(Cc3cnccn3)c1C)C(=O)c1ccccc1C2=O + COc1ccc2c(c1)CCC1C2CCC2(C)C(NCCCCCCN3C(=O)C=CC3=O)CCC12 [U73122] (first compound 0.002 µM, partner dose 2 µM)	119%
C#Cc1cccc(Nc2ncnc3cc(OCCOC)c(OCCOC)cc23)c1 [erlotinib] + COCC[n+]1c2c(n(Cc3cnccn3)c1C)C(=O)c1ccccc1C2=O [YM155] (first compound 4 µM, partner dose 0.002 µM)	89.6%
Clc1ccc(Nc2nnc(Cc3ccncc3)c3ccccc23)cc1 [vatalanib] + CCc1ccc(CCOc2ccc(CC3SC(=O)NC3=O)cc2)nc1 [pioglitazone] (first compound 10 µM, partner dose 10 µM)	79.2%
C#Cc1cccc(Nc2ncnc3cc(OCCOC)c(OCCOC)cc23)c1 [erlotinib] + CO[C@@H]1[C@H](N(C)C(=O)c2ccccc2)C[C@H]2O[C@]1(C)n1c3ccccc3c3c4c(c5c6ccccc6n2c5c31)C(=O)NC4 [Midostaurin] (first compound 4 µM, partner dose 0.4 µM)	62.9%
